# According to PubChem BioAssay AID1347165 (National Center for Advancing Translational Sciences (NCATS), 2019):
# Screen size: about 220,000 compounds; about 5,700 (2.6%) were called active. The shares of active, inactive and inconclusive entries below differ from those in the screen. Calls follow the shape of the dose curve; as a rule, active = well fitted inhibition curve with a large enough effect; inconclusive = small, poorly fitted or top-dose-only effect; inactive = no such curve, though single readings can be large or run the other way. A potency beside an inconclusive call is a rough fit, not a confirmed value.
# Biological target: Lysine-specific demethylase 5B (Homo sapiens) (UniProt Q9UGL1)
# Assay: Primary screen for KDM5B Histone Demethylases FDH-coupled qHTS; also: nearly all actives have a fitted effect of over 70% in size; as to activity change, negative = inhibition: 0% is about no effect
# Details: FDH-coupled NADH fluorescence (FDH is formaldehyde dehydrogenase); activity change, negative = inhibition: at 57.7 µM (top of the series) unless noted
# In short: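 Measured: NADH fluorescence change, 30 min, RT. System: KDM5BΔAP 200 nM final, H3K4me3 peptide, α-KG, Fe(II), ascorbate, NAD⁺ plus FDH, pH 7.5 HEPES. Compounds: titrated, 10 min pre-incubation with enzyme.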
# Potency is read from the fitted curve at half-maximal effect; tags tell the direction and shape of the fitted curve.
# Sequence of UniProt Q9UGL1 (Q9UGL1 whole entry, looked up): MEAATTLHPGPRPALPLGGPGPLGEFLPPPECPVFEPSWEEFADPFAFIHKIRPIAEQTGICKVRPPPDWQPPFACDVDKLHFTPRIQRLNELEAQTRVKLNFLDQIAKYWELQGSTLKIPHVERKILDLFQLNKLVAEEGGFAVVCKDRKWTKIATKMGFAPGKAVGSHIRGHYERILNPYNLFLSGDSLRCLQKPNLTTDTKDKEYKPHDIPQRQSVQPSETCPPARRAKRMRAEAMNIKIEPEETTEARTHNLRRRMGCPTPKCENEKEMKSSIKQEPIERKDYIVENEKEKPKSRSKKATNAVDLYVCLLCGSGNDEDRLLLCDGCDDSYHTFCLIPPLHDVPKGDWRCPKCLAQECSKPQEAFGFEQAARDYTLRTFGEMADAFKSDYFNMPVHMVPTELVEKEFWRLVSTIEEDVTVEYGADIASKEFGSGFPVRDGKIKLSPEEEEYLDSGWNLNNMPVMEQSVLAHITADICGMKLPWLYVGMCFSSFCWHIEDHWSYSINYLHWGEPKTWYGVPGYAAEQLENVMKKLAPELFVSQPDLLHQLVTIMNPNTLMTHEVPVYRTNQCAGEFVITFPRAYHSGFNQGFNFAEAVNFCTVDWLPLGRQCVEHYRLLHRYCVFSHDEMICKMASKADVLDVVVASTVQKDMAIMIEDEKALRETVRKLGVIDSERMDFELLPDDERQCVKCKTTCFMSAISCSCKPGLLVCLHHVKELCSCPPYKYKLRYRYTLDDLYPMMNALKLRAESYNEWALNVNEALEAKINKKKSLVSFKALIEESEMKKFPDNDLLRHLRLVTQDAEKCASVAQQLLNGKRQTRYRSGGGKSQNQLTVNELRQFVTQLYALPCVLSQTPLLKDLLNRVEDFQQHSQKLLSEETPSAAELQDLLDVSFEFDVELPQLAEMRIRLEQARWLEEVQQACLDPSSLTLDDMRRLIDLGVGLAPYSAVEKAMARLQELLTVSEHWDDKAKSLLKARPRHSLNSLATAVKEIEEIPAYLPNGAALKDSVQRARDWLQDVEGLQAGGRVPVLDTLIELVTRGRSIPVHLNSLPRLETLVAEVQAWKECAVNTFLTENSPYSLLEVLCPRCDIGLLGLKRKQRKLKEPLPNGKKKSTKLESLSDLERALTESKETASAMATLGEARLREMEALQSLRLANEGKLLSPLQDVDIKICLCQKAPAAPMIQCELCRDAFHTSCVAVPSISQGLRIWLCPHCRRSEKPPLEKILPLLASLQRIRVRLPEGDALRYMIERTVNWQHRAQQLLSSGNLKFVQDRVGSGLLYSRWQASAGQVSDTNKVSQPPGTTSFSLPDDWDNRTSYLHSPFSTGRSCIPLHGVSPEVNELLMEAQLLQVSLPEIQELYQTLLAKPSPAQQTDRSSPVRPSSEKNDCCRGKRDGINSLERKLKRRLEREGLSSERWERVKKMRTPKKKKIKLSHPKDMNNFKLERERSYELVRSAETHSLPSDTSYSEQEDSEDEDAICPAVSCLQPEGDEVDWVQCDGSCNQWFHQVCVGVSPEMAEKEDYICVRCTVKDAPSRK
Compound,Potency,"activity change, negative = inhibition"
N#C/C(=C\c1c(N2CCCCCC2)nc2ccccn2c1=O)C(=O)NCc1ccco1,"inconclusive: 10 µM [inhibitor, partial curve, poor fit]",–
Cc1noc([C@@H]2CC(F)(F)CN2)n1,"inconclusive: 20 µM [inhibitor, partial curve, poor fit]",–
O=c1nc(N2CCOCC2)ccn1-c1nc(-c2ccccc2)sc1-c1ccccc1,"inconclusive: 39.8 µM [inhibitor, partial curve, poor fit]",–
Cc1nc(-c2ccc(S(=O)(=O)Nc3ccc(C#N)cc3)cc2)co1,"inconclusive: 1.78 µM [inhibitor, full curve, poor fit]",–
Cc1cc(NC(=O)CC#N)n(-c2nc3ccccc3[nH]2)n1,"inconclusive: 39.8 µM [inhibitor, single point]",–
Cn1cnc2c1c(=O)n(Cc1ccccc1F)c(=O)n2C,–,inactive: -4.68%
CCC(C)C(=O)Nc1ccc(-c2nc3ccccc3o2)cc1 (configuration not stated),"inconclusive: 35.5 µM [inhibitor, partial curve, poor fit]",–
C/C(=N\O)C(C)N(O)C(C)/C(C)=N/O (configuration not stated),–,inactive: -27.4%
CN1c2cc(C(=O)Nc3ccc(Cl)c(F)c3)ccc2C(=O)N2CCCCCC21 (configuration not stated),–,inactive: 971%
CCOc1ccccc1CNc1ccc2cc(S(=O)(=O)N3CCC(C)CC3)ccc2n1,"inconclusive: 25.1 µM [inhibitor, partial curve, poor fit]",–
COc1ccc(-c2nn3c(=O)cc(CN4CCN(C(=O)c5ccc(OC)c(OC)c5)CC4)nc3s2)cc1,"inconclusive: 5.62 µM [inhibitor, full curve, poor fit]",–
CCCCCNC(=O)Cc1csc2nc(C)c(-c3cc(C)n(-c4ccccc4F)n3)c(=O)n12,"inconclusive: 28.2 µM [inhibitor, partial curve, poor fit]",–
COc1ccc(-c2noc(N(c3nc(-c4ccc(OC)c(OC)c4)no3)c3ccccc3OC)n2)cc1OC,–,inactive: -8.96%
CCOc1ccccc1Nc1sc(C(=O)c2ccccc2)c(N)c1C(=O)Nc1ccccc1,"inconclusive: 14.1 µM [inhibitor, partial curve, poor fit]",–
COc1ccccc1-c1ccnc(N[C@H]2CO[C@H]3[C@@H]2OC[C@@H]3NC(=O)c2ccc(C(F)(F)F)cc2)n1,"inconclusive: 14.1 µM [inhibitor, partial curve]",–
COc1ccc(NC(=O)c2ccc3c(c2)N(C)C2CCCN2C3=O)cc1OC (configuration not stated),"inconclusive: 10 µM [inhibitor, partial curve, poor fit]",–
O=C1[C@H]2CN(Cc3ccc(F)c(Cl)c3)C[C@H]2C(=O)N1CCc1ccccc1,active: 12.6 µM,–
O=C1CCCC2=C1C(c1ccccc1)C=C1c3cc4c(cc3CCN12)OCCCO4 (configuration not stated),"inconclusive: 20 µM [inhibitor, single point]",–
CC(CCc1ccccc1)NC(=O)COC(=O)c1cc(C(C)(C)C)cc(C(C)(C)C)c1 (configuration not stated),–,inactive: 8.84%
COc1cccc(CN2CCC3(CC2)NCCc2c3[nH]c3ccc(OC)cc23)c1,active: 25.1 µM,–
Cc1nccn1CCCN1CCC2(CC1)C(C(=O)O)CC(=O)N2C (configuration not stated),–,inactive: -24%
O=C(NCCc1ccc(C(F)(F)F)cc1)C12CC3CC(CC(Cl)(C3)C1)C2,–,inactive: -3.39%
COc1ncc(-c2cccc(COc3ccc4c(cnn4CC[S+](C)(=O)[O-])c3)c2)cn1,active: 35.5 µM,–

Compound,Potency,"activity change, negative = inhibition"
CC(=O)c1cccc(NC(=O)Cc2c(C)c3ccc(O)cc3oc2=O)c1,"inconclusive: 15.8 µM [inhibitor, partial curve, poor fit]",–
O=C(Nc1ccc2nc(N3CCN(C4CCCCC4)CC3)cc(C(=O)O)c2c1)c1cccc(Cl)c1,"inconclusive: 22.4 µM [inhibitor, single point]",–
COc1ccc(C2C3=C(CCCC3=O)Nc3nc(SCc4ccc(C(=O)O)cc4)nn32)cc1 (configuration not stated),"inconclusive: 25.1 µM [inhibitor, single point]",–
CN1[C@@H](CCC(=O)N2CCc3ccccc32)CNC(=O)[C@@H]2[C@H]1CCN2Cc1ccc(S(C)(=O)=O)cc1,–,inactive: 0.0189%
O=C(NCc1ccc(F)cc1F)c1ccc(N2CC3CC(C2)[C@H]2CCCC(=O)N2C3)nc1 (some centres not stated),"inconclusive: 28.2 µM [inhibitor, single point]",–
Cc1ccccc1-c1ccc(=O)n(CC(=O)Nc2ccc(-n3cnnn3)cc2)n1,"inconclusive: 35.5 µM [inhibitor, single point]",–
COC[C@H]1C[C@@H](NC(=O)c2ccc(C(F)(F)F)cc2)[C@H](O)[C@@H]1O,"inconclusive: 31.6 µM [inhibitor, single point]",–
O=C(NCCCNC1CCCCC1)c1cc2ccccc2[nH]1,"inconclusive: 22.4 µM [inhibitor, partial curve, poor fit]",–
Cc1cccc(CNC(=O)c2ccccc2NC(=O)c2cccs2)c1,"inconclusive: 39.8 µM [inhibitor, partial curve, poor fit]",–
CCCN1CCCC2(CCN(c3cc(C)c4cccc(OC)c4n3)C2)C1=O (configuration not stated),active: 28.2 µM,–
Cc1ccc(NC(=O)c2nc(S(C)(=O)=O)ncc2N(Cc2ccco2)Cc2cccs2)c(C)c1,"inconclusive: 14.1 µM [inhibitor, partial curve, poor fit]",–
CC1=C[C@@H](CN2CCOCC2)[C@H](C(C)C)C[C@H]1Cc1nnc(-c2ccc([N+](=O)[O-])cc2)o1,"inconclusive: 31.6 µM [inhibitor, single point]",–
CN(CC(=O)NC(N)=O)CC1CCCCC1,–,inactive: 21.3%
CCNc1c(NC(=O)Nc2ccc(F)cc2F)c(=O)oc2ccccc12,–,inactive: 2.6%
CCOc1ccc(S(=O)(=O)N(C)CC(=O)N2CCOCC2)cc1C,–,inactive: 13.1%
COC(=O)[C@H](NC(=O)Nc1ccc(C)c(C)c1)C(C)C,–,inactive: 6.97%
COc1ccc(C(=O)N[C@H]2CC[C@]3(C)CCC([C@H](C)C(=O)N(C)Cc4cccnc4)[C@H](O)[C@H]3[C@@H]2C)cc1 (some centres not stated),–,inactive: 29.2%
CSc1nnc(C(C)(C)C)c(=O)n1/N=C/c1c(O)ccc2ccccc12,–,inactive: 35.5%
CC1CCCN1c1ccc(C(=O)N2CCC(Oc3cccnc3)CC2)cn1 (configuration not stated),–,inactive: 2.53%
O=C(Cc1ccccc1)N1CCC[C@H]1c1nc(-c2ccccc2)no1,–,inactive: -11.2%
COc1ccc(S(=O)(=O)Nc2ccccc2OC)cc1NC(=O)c1cccc(-n2cccc2)c1,"inconclusive: 39.8 µM [inhibitor, single point]",–
Cn1c2c(c3cc(F)ccc31)CN(C(=O)Nc1ccc(Cl)cc1)CC2,"inconclusive: 25.1 µM [inhibitor, partial curve, poor fit]",–
Cc1ccc(-c2cc(C(=O)NCCCN(C)C)c3ccccc3n2)cc1C,"inconclusive: 25.1 µM [inhibitor, partial curve, poor fit]",–

Compound,Potency,"activity change, negative = inhibition"
COc1ccc2c(C)c(CCC(=O)N(C)Cc3cccc(OC)c3OC)c(=O)oc2c1,"inconclusive: 25.1 µM [inhibitor, partial curve, poor fit]",–
COc1ccc(C(=O)NCCc2c[nH]c3ccccc23)c(F)c1,–,inactive: 8.51%
CN1Cc2ncnc(NCC3CC3)c2CN(c2ccc(Cl)cc2)C1=O,–,inactive: -8.44%
Cc1ccccc1Oc1nc2c(c(=O)n(C)c(=O)n2C)n1C,–,inactive: 33.8%
Cc1cc(F)ccc1NC(=O)c1cnc2c(c1)N(C(=O)CCc1ccccc1)CCC2,–,inactive: 3.04% [at 86.2 µM]
Cc1ccc2[nH]cc(C(C(=O)O)N3CCN(C(c4ccccc4)c4ccccc4)CC3)c2c1 (configuration not stated),"inconclusive: 39.8 µM [inhibitor, single point]",–
CCCSc1nc2c(c(=O)[nH]1)C(c1ccc(C)o1)C1=C(CCCC1=O)N2 (configuration not stated),"inconclusive: 25.1 µM [inhibitor, partial curve, poor fit]",–
COC[C@H]1CCCN1Cc1nc(C2(O)CCN(Cc3ccccc3O)CC2)cs1,–,inactive: -3.36% [at 86.2 µM]
CCOC(=O)C1CCCN(CC(=O)c2ccc(F)cc2)C1 (configuration not stated),"inconclusive: 15.8 µM [inhibitor, partial curve, poor fit]",–
Cc1cccc(C)c1-c1nc(C(=O)N2CCCC2)n2ccccc12,active: 39.8 µM,–
CCCCOCCCNC(=O)Cn1nc(C)c2ccccc2c1=O,–,inactive: 1.47%
COCCNC(=O)CSc1nc(-c2cc(OC)c(OC)c(OC)c2)[nH]c1-c1ccc(Cl)cc1,"inconclusive: 22.4 µM [inhibitor, partial curve, poor fit]",–
O=C(COc1ccccc1)N(Cc1ccc(-c2cccc(Cl)c2)o1)C1CCS(=O)(=O)C1 (configuration not stated),"inconclusive: 31.6 µM [inhibitor, single point]",–
CCOc1c(C)cc(-c2ncccc2O)cc1C,"inconclusive: 25.1 µM [inhibitor, partial curve, poor fit]",–
COc1ccc(S(=O)(=O)N2CCCN(C)c3ccccc32)cc1,"inconclusive: 8.91 µM [inhibitor, partial curve, poor fit]",–
COc1ccc(C(=O)N2CC[C@H]3C(=O)NCCCCCCN(Cc4ccncc4)[C@@H]3C2)c(OC)c1,"inconclusive: 22.4 µM [inhibitor, partial curve, poor fit]",–
CN1c2cc(C(=O)NCc3ccc(F)cc3Cl)ccc2C(=O)N2CCCCC21 (configuration not stated),"inconclusive: 25.1 µM [inhibitor, partial curve, poor fit]",–
CC(C)Oc1c(I)cc(I)cc1/C=C(\C#N)c1nc2ccccc2[nH]1,"inconclusive: 15.8 µM [inhibitor, partial curve, poor fit]",–
CCn1c(=O)c2ccccc2n(CC(=O)Nc2ccccc2C(F)(F)F)c1=O,–,inactive: 2.98%
COc1cccc(OC)c1-c1cccc(C(=O)c2nccn2C)c1,–,inactive: 3.27%
COc1cc(NC(=O)CN2c3ccccc3S(=O)(=O)c3ccccc32)cc(OC)c1,"inconclusive: 17.8 µM [inhibitor, partial curve, poor fit]",–
